From PubChem BioAssay AID1030 (National Center for Advancing Translational Sciences (NCATS), 2008)
“And” between values parts separate entries of the source, which are not always exact repeats. Equal values may be shown once. Out of some 220,000 compounds screened, about 16,000 (7.3%) were called active. Inconclusive results, whose numbers are uncertain, are shown with a selection of clear calls. Calls follow the shape of the dose curve; as a rule, active = well fitted inhibition curve with a large enough effect (not every such curve was filed as active); inconclusive = small, poorly fitted or top-dose-only effect, or another doubt; inactive = no such curve, though single readings can be large or run the other way. Where the call is inconclusive, the potency comes from a doubtful curve fit.
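For activity, negative = inhibition in this document: plate controls were no enzyme wells and a reference inhibitor.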
Potency is read from the fitted curve at half-maximal effect; tags tell the direction and shape of the fitted curve.

The molecules below were run against Aldehyde dehydrogenase 1A1 (Homo sapiens) (UniProt P00352) (assay: qHTS Assay for Inhibitors of Aldehyde Dehydrogenase 1 (ALDH1A1)). Details: Purified ALDH1A1, NADH fluorescence, propionaldehyde substrate; series mostly up to 75.3 µM; activity, negative = inhibition: at the top concentration.
Chain of UniProt P00352 (P00352 whole entry, looked up): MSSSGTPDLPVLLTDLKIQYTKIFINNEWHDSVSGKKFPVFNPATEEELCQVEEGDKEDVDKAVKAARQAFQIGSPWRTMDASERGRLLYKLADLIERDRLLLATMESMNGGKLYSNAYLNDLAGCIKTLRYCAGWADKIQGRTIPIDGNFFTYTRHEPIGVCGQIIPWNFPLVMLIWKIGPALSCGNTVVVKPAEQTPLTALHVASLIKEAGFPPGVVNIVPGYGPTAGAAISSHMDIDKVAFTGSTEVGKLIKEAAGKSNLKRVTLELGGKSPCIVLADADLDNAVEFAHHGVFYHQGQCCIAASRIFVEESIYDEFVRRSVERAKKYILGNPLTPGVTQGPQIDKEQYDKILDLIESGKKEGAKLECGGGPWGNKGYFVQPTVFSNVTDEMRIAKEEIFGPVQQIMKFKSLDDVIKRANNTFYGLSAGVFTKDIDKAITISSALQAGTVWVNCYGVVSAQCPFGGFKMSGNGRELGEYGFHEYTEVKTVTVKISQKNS
In the case of `N#Cc1c(C(F)(F)F)cc(-c2ccc(Cl)c(Cl)c2)nc1SCCN1CCOCC1`, the “activity, negative = inhibition” value is reported as inactive: 2.07%. In the case of `Cc1ccc(NC(=O)COC(=O)Cc2ccsc2)c(C)c1`, the “activity, negative = inhibition” value is reported as inactive: -2.04%. In the case of `O=c1c(-c2cnn(-c3ccccc3)c2)coc2cc(O)ccc12`, the Potency is reported as inconclusive: 31.6 µM [inhibitor, partial curve]. `O=S(=O)(c1ccc(F)cc1)n1ccc(-c2cnc(-c3ccccc3)s2)n1` was tested, and the Potency was inconclusive: 39.8 µM [inhibitor, single point]. With `O=C(Cn1ncc(Cl)c(Cl)c1=O)NCC1CCCCC1` the Potency was active: 22.4 µM. In the case of `Cc1ccccc1NC(=O)C1CCN(c2cnccn2)CC1`, the “activity, negative = inhibition” value is reported as inactive: -5.06%. With `CCn1c2ccccc2c2nnc(SCC(N)=O)nc21` the Potency was inconclusive: 35.5 µM [inhibitor, single point]. For `Cc1occc1C(=O)Nc1cccc(C(F)(F)F)c1`, the “activity, negative = inhibition” value was inactive: -1.52%. With `Cc1cccc(OP(=O)(Nc2c(C)n(C)n(-c3ccccc3)c2=O)Oc2cccc(C)c2)c1` the Potency was inconclusive: 39.8 µM [inhibitor, single point]. With `c1ccc(Oc2cccc(OCCn3cncn3)c2)cc1` the Potency was inconclusive: 31.6 µM [inhibitor, single point]. In the case of `Fc1ccc(/C=N/c2c(-c3ccc(F)cc3)nc3n2CCS3)cc1`, the “activity, negative = inhibition” value is reported as inactive: -6.93%. `N#Cc1nc(-c2cccs2)oc1NCc1ccccc1Cl` was tested, and the Potency was inconclusive: 35.5 µM [inhibitor, partial curve]. `COc1ccc(OC)c(C2C(C(=O)c3cc4ccccc4o3)=C(O)C(=O)N2c2cc(C)on2)c1` (configuration not stated) was tested, and the Potency was inconclusive: 39.8 µM [inhibitor, single point]. `O=C(OCc1nnc(-c2ccccc2)o1)c1cccnc1Cl` was tested, and the “activity, negative = inhibition” value was inactive: -0.485%. With `CN(C)c1cccc(C(=O)n2cc(C(=O)c3cc(F)ccc3O)cn2)c1` the Potency was active: 4.47 µM. In the case of `CN(Cc1cc2ccccc2[nH]c1=O)S(=O)(=O)c1ccccc1`, the Potency is reported as inconclusive: 23.8 µM [inhibitor, single point]. `Cc1cc(C)c2[nH]c(=O)c(CN(Cc3nnnn3C3CCCC3)C3CCCCC3)cc2c1` was tested, and the Potency was active: 17.8 µM. For `O=C(NCCCN1CCOCC1)c1ccccc1`, the Potency was inconclusive: 20 µM [inhibitor, single point]. In the case of `COCCn1c(SCC(=O)c2c(N)n(C)c(=O)n(C)c2=O)nc2ccccc21`, the “activity, negative = inhibition” value is reported as inactive: 3.48%. In the case of `CC(C)Sc1nc(N2CCOCC2)c2c3c(sc2n1)COC(C)(C)C3`, the Potency is reported as inconclusive: 28.2 µM [inhibitor, partial curve]. In the case of `CC(C)C(O)(C(C)C)C(C)C`, the Potency is reported as inconclusive: 4.47 µM [inhibitor, partial curve]. In the case of `CC(C)CCNC(=O)CCSCCC(=O)NCCC(C)C`, the “activity, negative = inhibition” value is reported as inactive: 5.88%. For `CCCCNC(=O)/C(C#N)=C/c1ccc(C(=O)OC)cc1`, the “activity, negative = inhibition” value was inactive: -7.31%. For `Fc1ccc(COc2ccccc2CNCc2ccncc2)cc1`, the Potency was inconclusive: 12.6 µM [inhibitor, partial curve, poor fit]. With `Cc1nn(CC(=O)O)c(C)c1C` the Potency was inconclusive: 39.8 µM [inhibitor, single point]. `CC(OC(=O)c1ccncc1)C(=O)Nc1ccc([N+](=O)[O-])cc1Cl` (configuration not stated) was tested, and the Potency was inconclusive: 17.8 µM [inhibitor, single point]. In the case of `CC(C)(C)c1nc(SCC(=O)N2CC(=O)Nc3ccccc32)c2ccccc2n1`, the “activity, negative = inhibition” value is reported as inactive: 9.73%. For `N#CC1=C(N)Oc2ccc3ccc(O)cc3c2C1c1ccsc1` (configuration not stated), the Potency was inconclusive: 25.1 µM [inhibitor, single point]. For `CC(=O)Nc1ccc(S(=O)(=O)NCCNc2ccccc2[N+](=O)[O-])cc1`, the Potency was active: 4.47 µM. For `O=C(CN(c1ccc(Cl)cc1)S(=O)(=O)c1ccccc1)N/N=C/c1ccco1`, the Potency was inconclusive: 31.6 µM [inhibitor, single point]. In the case of `Cn1cnnc1SC(C(=O)c1ccccc1)c1ccccc1` (configuration not stated), the Potency is reported as inconclusive: 39.8 µM [inhibitor, single point]. With `Cn1c(N)c(C(=O)CCl)c(=O)n(C)c1=O` the Potency was inconclusive: 39.8 µM [inhibitor, single point]. In the case of `CN(N=O)C(=O)N[C@H]1C(O)C(O)C(CO)O[C@@H]1O` (some centres not stated), the “activity, negative = inhibition” value is reported as inactive: -3.93%. `Cc1ccc(C(=O)Nc2nnc(NC(=S)Nc3ccccc3)s2)cc1` was tested, and the Potency was active: 22.4 µM. In the case of `CC(=O)Nc1nc(C)c(-c2csc(Nc3ccccn3)n2)s1`, the Potency is reported as inconclusive: 37.7 µM [inhibitor, single point] and inconclusive: 35.5 µM [inhibitor, single point]. With `COC(=O)N1CCC2(CCN(Cc3cc(C(F)(F)F)cc(C(F)(F)F)c3)CC2)CC1` the “activity, negative = inhibition” value was inactive: -17.1%. For `CN=C1S/C(=C\c2ccc(N3CCCC3)c(F)c2)C(=O)N1C`, the “activity, negative = inhibition” value was inactive: -1.34%. In the case of `COc1cc2c(cc1OC)C(c1cc3cc(OC)c(OC)cc3[nH]c1=O)N(C(=O)C1CC1)CC2` (configuration not stated), the Potency is reported as inconclusive: 28.2 µM [inhibitor, single point]. For `COC(=O)c1ccccc1NC(=O)c1ccccc1SC`, the “activity, negative = inhibition” value was inactive: -3.84%. In the case of `O=c1cc(C23CC4CC(CC(C4)C2)C3)[nH][nH]1`, the “activity, negative = inhibition” value is reported as inactive: -7.02%. `O=C(Cc1ccccc1[N+](=O)[O-])NCCSCc1c(F)cccc1Cl` was tested, and the Potency was inconclusive: 20 µM [inhibitor, partial curve]. For `O=C(OCC(=O)N1c2ccccc2Sc2ccccc21)C1CC(=O)N(Cc2ccco2)C1` (configuration not stated), the Potency was active: 35.5 µM. In the case of `COC(=O)Cc1c(C)[nH]n(-c2cc(Cl)cc(Cl)c2)c1=O`, the Potency is reported as active: 7.08 µM. With `Cc1ccc(C)c(OCC(=O)Nc2nc3ccc([N+](=O)[O-])cc3s2)c1C` the Potency was inconclusive: 31.6 µM [inhibitor, single point]. With `Fc1ccccc1C1CCN(Cc2nc(COc3ccccc3)no2)C1` (configuration not stated) the Potency was inconclusive: 39.8 µM [inhibitor, single point]. With `COc1ccccc1CNC(=O)c1ccccc1N` the Potency was inconclusive: 25.1 µM [inhibitor, partial curve]. In the case of `Cc1ccc(CSC2=NCCN2C(=O)c2ccc([N+](=O)[O-])cc2)cc1`, the Potency is reported as active: 15.8 µM. `CCOC(=O)CSc1nnc(-c2ccc(OC)cc2)n1CC` was tested, and the Potency was active: 2.51 µM. `O=C(CNC(=O)c1cccs1)N/N=C/c1ccc(O)cc1O` was tested, and the “activity, negative = inhibition” value was inactive: -0.0047%. `CN(C)S(=O)(=O)c1cc(NC(=O)CNCCN2CCOCC2)ccc1Cl` was tested, and the Potency was inconclusive: 17.8 µM [inhibitor, partial curve]. In the case of `CCCn1nc(NC(=O)c2cccs2)c2cc3cc(OC)ccc3nc21`, the Potency is reported as inconclusive: 28.2 µM [inhibitor, partial curve]. For `CCCCNC(=O)CNC(=S)N(Cc1ccccc1F)C1CCCCC1`, the Potency was active: 22.4 µM. In the case of `CN1CCc2nc3ccc(Cl)cc3c(-c3ccccc3Cl)c2C1`, the “activity, negative = inhibition” value is reported as inactive: 3.72%. `O=C(Nc1ccc2nn(-c3ccccc3)nc2c1)c1ccc2c(c1)OCO2` was tested, and the Potency was inconclusive: 39.8 µM [inhibitor, single point]. With `CN1CCc2c(sc3ncn4nc(-c5ccccc5O)nc4c23)C1` the Potency was inconclusive: 28.2 µM [inhibitor, single point]. For `CCC(C)NS(=O)(=O)c1ccc(OC)c(Cl)c1Cl` (configuration not stated), the Potency was inconclusive: 22.4 µM [inhibitor, single point]. In the case of `Cc1cc2nc(CCl)cc(=O)n2[nH]1`, the “activity, negative = inhibition” value is reported as inactive: -4.09%. In the case of `CCc1ccc(/C([O-])=C(/C(=S)NCCN2CCOCC2)[n+]2ccccc2)cc1`, the Potency is reported as inconclusive: 39.8 µM [inhibitor, single point]. For `c1ccc2c(c1)ncn2Cc1nnc2sc(-c3ccc4c(c3)OCO4)nn12`, the Potency was inconclusive: 25.1 µM [inhibitor, partial curve]. With `O=c1c(-c2cccs2)nc2cnc(N3CCNCC3)nc2n1C1CC1` the Potency was inconclusive: 31.6 µM [inhibitor, partial curve]. In the case of `COc1ccc(S(=O)(=O)Nc2ccc(S(=O)(=O)N3CCCCC3)cc2)cc1C`, the Potency is reported as active: 3.98 µM. `O=C(NCc1ccccc1)c1cc2ccccc2o1` was tested, and the Potency was inconclusive: 17.8 µM [inhibitor, partial curve]. With `O=C(c1ccc(Cl)c(S(=O)(=O)N2CCOCC2)c1)N(c1ccccn1)C1CCCCC1` the Potency was inconclusive: 28.2 µM [inhibitor, single point]. `O=C1NC(c2cc(Cl)cc([N+](=O)[O-])c2O)Nc2ccccc21` (configuration not stated) was tested, and the Potency was inconclusive: 28.2 µM [inhibitor, single point]. In the case of `O=C1NCCC/C1=N/Nc1cc(F)ccc1F`, the “activity, negative = inhibition” value is reported as inactive: 5.29%. `CCOc1ccc(N2C(=O)Nc3ccccc3C2(O)C(=O)NCc2ccc(OC)cc2)cc1` (configuration not stated) was tested, and the Potency was inconclusive: 28.2 µM [inhibitor, partial curve]. `Cc1nn2c3ccccc3n(Cc3ccccc3)c2nc1=O` was tested, and the “activity, negative = inhibition” value was inactive: 19%. With `O=C(CCc1ccccc1)OCC(=O)c1ccc([N+](=O)[O-])cc1` the Potency was active: 8.91 µM. With `COc1ccc(S(=O)(=O)N/N=C\c2ccc(OC)c(COc3ccc(C)cc3[N+](=O)[O-])c2)cc1` the Potency was active: 14.1 µM. For `COc1cc2cc(C)nc(Cc3cccc4ccccc34)c2cc1OC`, the Potency was inconclusive: 35.5 µM [inhibitor, single point]. For `Nn1c(Cc2cccc3ccccc23)nnc1SCc1ccccc1Cl`, the “activity, negative = inhibition” value was inactive: 5.87%. For `c1ccc(CNc2nnnn2-c2ccccc2)cc1`, the Potency was active: 39.8 µM. With `Cn1c(=O)c2[nH]c(-c3cccnc3)nc2n(C)c1=O` the Potency was inconclusive: 25.1 µM [inhibitor, single point]. For `Cc1cccn2c1nc(=S)n2C(=O)c1ccco1`, the “activity, negative = inhibition” value was inactive: -10.1%. With `CC1CN(S(=O)(=O)c2ccc(NC(=O)CCCN3C(=O)c4ccccc4C3=O)cc2)CC(C)O1` (configuration not stated) the Potency was inconclusive: 28.2 µM [inhibitor, single point]. With `O=C(NN=C1c2ccccc2-c2ccccc21)c1ccccn1` the Potency was inconclusive: 28.2 µM [inhibitor, single point]. `O=C(O)c1cccc(NC(=S)N/N=C/c2c[nH]c3ccccc23)c1` was tested, and the Potency was inconclusive: 35.5 µM [inhibitor, single point].
